From PubChem BioAssay AID360 (National Center for Advancing Translational Sciences (NCATS), 2006)
The campaign covered roughly 48,000 compounds. About 550 (1.1%) were called active. Roughly 4% stayed inconclusive and do not appear here. No stated cut-off is given here; in the data, active means potency below about 15 µM; inconclusive means mostly about 16 µM to 33 µM; inactive means weaker than that. The list shows a part of the results.

target: Lysosomal acid glucosylceramidase (Homo sapiens) (UniProt P04062); assay: Glucocerebrosidase; details: purified enzyme, resorufin glucoside fluorescence (screen aimed at inhibitors), 20 min;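 further: the screen sought inhibitors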
UniProt P04062, sequence (P04062 whole entry, looked up): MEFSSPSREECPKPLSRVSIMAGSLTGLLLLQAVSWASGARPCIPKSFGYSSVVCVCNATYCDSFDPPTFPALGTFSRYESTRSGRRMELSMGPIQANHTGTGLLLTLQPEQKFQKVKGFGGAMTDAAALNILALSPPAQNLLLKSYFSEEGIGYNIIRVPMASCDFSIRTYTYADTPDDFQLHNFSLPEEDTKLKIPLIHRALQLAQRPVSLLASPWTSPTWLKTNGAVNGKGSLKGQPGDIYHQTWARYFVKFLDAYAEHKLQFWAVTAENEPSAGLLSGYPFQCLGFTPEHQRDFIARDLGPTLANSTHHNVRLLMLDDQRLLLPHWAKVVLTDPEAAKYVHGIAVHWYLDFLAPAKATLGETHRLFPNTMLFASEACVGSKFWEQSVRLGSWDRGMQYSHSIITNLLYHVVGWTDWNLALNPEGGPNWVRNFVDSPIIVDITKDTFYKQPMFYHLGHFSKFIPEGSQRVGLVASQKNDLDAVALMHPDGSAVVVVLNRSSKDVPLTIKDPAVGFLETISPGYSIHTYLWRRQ
Method in brief: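 Compounds titrated against 0.2 nM normal enzyme, 30 uM resorufin beta-D-glucopyranoside substrate, citrate/phosphate buffer with taurocholate and tween-20, pH 5.9. Reaction ran 20 min at room temperature; fluorescence (Ex 548/Em 600) gave AC50.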
Potency means the concentration at half of the fitted maximal effect.

Potency, inactive:
CCN1C(=O)N(C)C(N(O)C(=O)NC)C1(C)C (centres undefined) > 76.9 µM, COc1ccc(OCC(=O)c2c(O)c3ccccc3oc2=O)cc1 > 76.9 µM, COc1ccc(CCn2c(SCC(=O)Nc3cc(C)on3)nc3ccccc3c2=O)cc1OC > 76.9 µM, COc1ccc(S(=O)(=O)N2CCC(C(=O)NCc3ccccn3)CC2)cc1Cl > 76.9 µM, CC(C)CNC(=O)C1CC(=O)OC12CCCCC2 (centres undefined) > 76.9 µM, COc1ccccc1CNC(=O)CCCN1C(=O)COc2ccc(C)cc21 > 76.9 µM, Cc1cccc(N2C(=O)CC(N(O)c3ccccc3)C2=O)c1 (centres undefined) > 76.9 µM, COc1ccc(OC)c(N2C(=O)[C@@H]3C(c4ccccc4Cl)=NO[C@@H]3C2=O)c1 > 76.9 µM, CC1(C)CC(=O)c2cc(OCC(=O)NCc3cccnc3)ccc2O1 > 76.9 µM, CC(=O)c1cc(C(=O)Nc2ccccc2C(=O)O)oc1C > 76.9 µM, O=C(Nc1ccc(Cl)c(Cl)c1)N(Cc1cccnc1)Cc1ccco1 > 76.9 µM, Cc1ccc(-c2nc3c(=O)n(C)c4ccccc4c3o2)cc1 > 76.9 µM, COC(=O)c1ccccc1NC(=O)C12CCC(C)(C(=O)O1)C2(C)C (centres undefined) > 76.9 µM, COc1ccccc1OCC(=O)Nc1ccc(O)cc1C(=O)O > 76.9 µM, Cc1nnc(-n2cnc3ccccc32)c2ccccc12 > 76.9 µM, Cc1cc(C(=O)CSc2nnnn2-c2ccc(Cl)cc2)c(C)n1CC1CCCO1 (centres undefined) > 76.9 µM, CCOC(=O)c1ccc(NC(=O)Nc2ccn(C)n2)cc1 > 76.9 µM, O=C(CN1CCN(CCOCCO)CC1)N1c2ccccc2Sc2ccc(Cl)cc21 > 76.9 µM, Cc1nnc(SCC(=O)Nc2ccccc2N2CCOCC2)s1 > 76.9 µM, COc1ccccc1CN1CC(C(=O)NC2CCCCC2)CC1=O (centres undefined) > 76.9 µM, Cc1cc(C(=O)CSc2nnc(-c3cccnc3)n2-c2ccccc2F)c(C)n1C > 76.9 µM, Cc1ccc2nc(C)cc(OCC(=O)O)c2c1 > 76.9 µM, O=C(NC1CCS(=O)(=O)C1)c1cnccn1 (centres undefined) > 76.9 µM, Cc1cc(C)nc(N2CCC(C(=O)Nc3cccc(C(F)(F)F)c3)CC2)n1 > 76.9 µM, Cc1nnc(SCC(=O)NCc2ccc3c(c2)OCO3)s1 > 76.9 µM, O=C(Cn1nnc(-c2cccc(C(F)(F)F)c2)n1)NC(=O)NCc1ccco1, CCn1cc(C(=O)Nc2ccc(C(=O)N3CCCC3)cc2)c(=O)c2ccc(C)nc21 > 76.9 µM, Cc1ccc(C(=O)N2c3ccc(F)cc3CCC2C)o1 (centres undefined) > 76.9 µM, CCN(CC)CCCNC(=O)CC1Sc2ccccc2NC1=O (centres undefined) > 76.9 µM, COc1ccc(-n2nnnc2SCC(=O)Nc2cccc(NC(C)=O)c2)cc1OC > 76.9 µM, CCc1c(C)nc(/N=C(/NC(=O)c2ccccc2)Nc2ccccc2OC)[nH]c1=O > 76.9 µM, CC(c1ccco1)N(Cc1ccco1)C(=O)Nc1ccccc1 (centres undefined) > 76.9 µM, N#Cc1ccc(CSc2nnc(Cc3cccs3)n2Cc2ccco2)cc1, COCCn1c(SCC(=O)Nc2cccc(C(=O)OC)c2)nc2ccccc2c1=O > 76.9 µM, O=C(NCc1ccccc1Cl)C1CCN(S(=O)(=O)N2CCC3(CC2)OCCO3)CC1 > 76.9 µM, Cc1ccc(S(=O)(=O)CC(c2ccccc2)N2CCOCC2)cc1 (centres undefined) > 76.9 µM, CCCn1c(SCC(=O)NC)nnc1C(C)C > 76.9 µM, CCOC(=O)C1CCN(C(=O)N(C)C)CC1 > 76.9 µM, CCc1nnc(NC(=O)CSc2nc3c(cc2C#N)CCC3)s1 > 76.9 µM, CS(=O)(=O)N(CCc1ccccc1)CC(=O)Nc1ccc2c(c1)OCO2 > 76.9 µM, C/C(=N\O)C1/C(=N/O)CC2C1C2(C)C (centres undefined) > 76.9 µM, C=CCc1cccc2cc(C(=O)NC(C)(C)C)c(=O)oc12 > 76.9 µM, CCOC(=O)N1CCN(c2nc(SC)nc3sc4c(c23)CC(C)(C)OC4)CC1 > 76.9 µM, NC(=O)C1(N2CCCCC2)CCN(CC(=O)Nc2ccc(Oc3ccccc3)cc2)CC1 > 76.9 µM, CCCN(Cc1cc2cc(C)ccc2[nH]c1=O)C(=O)c1cccc(OC)c1 > 76.9 µM, O=C(NCC12CC3CC(C1)CC(CNC(=O)N1CCCC1)(C3)C2)N1CCCC1 > 76.9 µM, CCCC(=O)N=C1SC2CS(=O)(=O)CC2N1c1ccc(C(C)=O)cc1 (centres undefined) > 76.9 µM, Cn1cccc1-c1cc(C(=O)O)[nH]n1 > 76.9 µM, CCCCCc1c(C)nc(N2CCOCC2)[nH]c1=O, COc1cc(NC(=O)C2CCCCC2)c(OC)cc1NC(=O)c1ccco1 > 76.9 µM, COc1ccc(NC(=O)CN2CCN(S(=O)(=O)c3ccc(Cl)cc3)CC2)cc1 > 76.9 µM, C/C(N)=C(/C#N)C(=O)CSc1nnc(Nc2c(C)cccc2C)s1 > 76.9 µM, CCOC(=O)c1ccc(NC(=O)NCc2ccn(CC)n2)cc1 > 76.9 µM, CCOC(=O)c1c(N)sc(C(=O)N2CCCC2)c1C > 76.9 µM, NC(=O)C1(N2CCCCC2)CCN(Cc2ccccc2Cl)CC1 > 76.9 µM, CCN(CC)CCn1c(NCc2cccc(OC)c2)nc2ccccc21 > 76.9 µM, CC1CCN(C(=S)c2ccccc2O)CC1 > 76.9 µM, CCc1ccc(Nc2oc(C)cc(=O)c2C(C)=O)cc1 > 76.9 µM, COc1ccccc1NC(=O)N1CCCC(C(=O)Nc2cccc(C)c2C)C1 (centres undefined) > 76.9 µM
